Experimental data from PubChem BioAssay AID1030 (National Center for Advancing Translational Sciences (NCATS), 2008).
Values joined by “and” are separate entries in the source; they are usually repeats but may differ in a detail not shown here. Equal entries are not always repeated. The whole screen tested about 220,000 compounds, of which about 16,000 (7.3%) were called active. Inconclusive results, whose numbers are uncertain, are shown with a selection of clear calls. The call rests on the fitted dose curve; in most records, active means well fitted inhibition curve with a large enough effect (not every such curve was filed as active); inconclusive means small, poorly fitted or top-dose-only effect, or another doubt; inactive means no such curve, though single readings can be large or run the other way. A potency beside an inconclusive call is a rough fit, not a confirmed value. The source holds several records for some structures; these can differ, active in one and inactive in another.

What follows are compounds tested against Aldehyde dehydrogenase 1A1 (Homo sapiens) (UniProt P00352) (assay: qHTS Assay for Inhibitors of Aldehyde Dehydrogenase 1 (ALDH1A1)). Conditions: Purified ALDH1A1, NADH fluorescence, propionaldehyde substrate; series mostly up to 75.3 µM.
Sequence of UniProt P00352 (P00352 whole entry, looked up): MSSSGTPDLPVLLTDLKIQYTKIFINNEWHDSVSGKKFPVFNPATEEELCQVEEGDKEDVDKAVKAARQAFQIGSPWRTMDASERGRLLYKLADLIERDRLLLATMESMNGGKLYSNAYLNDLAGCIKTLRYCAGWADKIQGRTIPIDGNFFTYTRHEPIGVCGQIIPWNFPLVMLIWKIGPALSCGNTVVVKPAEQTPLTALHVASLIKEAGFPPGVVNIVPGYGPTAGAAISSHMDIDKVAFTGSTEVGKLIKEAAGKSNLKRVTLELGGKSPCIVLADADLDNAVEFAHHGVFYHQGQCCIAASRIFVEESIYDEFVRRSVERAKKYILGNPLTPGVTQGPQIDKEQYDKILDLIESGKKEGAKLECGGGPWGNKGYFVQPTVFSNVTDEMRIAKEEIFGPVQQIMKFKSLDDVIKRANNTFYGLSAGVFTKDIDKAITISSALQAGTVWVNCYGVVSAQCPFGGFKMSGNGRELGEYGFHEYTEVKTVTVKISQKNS
Potency means the concentration at half of the fitted maximal effect; tags describe the fitted curve by direction and shape.
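Wherever activity, negative = inhibition is given: plate controls were no enzyme wells and a reference inhibitor.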

Potency, inconclusive:
Oc1oc(-c2ccccc2)nc1C=Nc1ccccc1 22.4 µM [inhibitor, single point]
CCCCOc1ccc(NC(=O)CSc2cccc3cccnc23)cc1 35.5 µM [inhibitor, single point]
C/C(=N\S(=O)(=O)c1ccc(C)cc1)NC(=S)Nc1ccccc1 10 µM [inhibitor, partial curve]
CC(C)CC(=O)N=Nc1c(O)[nH]c2ccccc12 22.4 µM [inhibitor, partial curve]
O=C1CC(c2ccc(Cl)cc2)CC(O)=C1C=NCCN1CCNCC1 (configuration not stated) 20 µM [inhibitor, partial curve]
COCCN(CCOC)c1nc(C)nc2c1nc(-c1ccccc1)n2CC1CCN(C)CC1 31.6 µM [inhibitor, partial curve]
O=C1CC(N2CCN(c3ccc(F)cc3)CC2)C(=O)N1Cc1ccc(N2CCCC2=O)cc1 (configuration not stated) 35.5 µM [inhibitor, single point]
O=C(Oc1ccc(Br)cc1C(=S)N1CCCCC1)c1cc([N+](=O)[O-])cc([N+](=O)[O-])c1 11.2 µM [inhibitor, partial curve]
O=C(Nc1ccc(C(=O)N2CCCCC2)cc1)C1CCCCC1 39.8 µM [inhibitor, single point]
O=[N+]([O-])c1cccc(-c2ccc(SCc3ccccn3)nn2)c1 25.1 µM [inhibitor, single point]
COCCN1C(=O)c2ccc(C(=O)O)cc2C1=O 39.8 µM [inhibitor, single point]
COc1ccccc1-c1noc(-c2cc(OC)c(OC)c(OC)c2)n1 31.6 µM [inhibitor, single point]
Cn1ccnc1SCC(=O)c1ccc2ccccc2c1 39.8 µM [inhibitor, single point]
CCCN(C(=O)c1ccco1)c1nnc(-c2cccc(C)c2)s1 31.6 µM [inhibitor, single point]
CCCC(=O)Nc1c(C(=O)OCC)[nH]c2ccccc12 23.8 µM [inhibitor, single point]
COc1ccc(NC2=C3CCCC=C3N(c3ccc(OC)cc3)C2=O)cc1 17.8 µM [inhibitor, partial curve]
CCCC(=O)OC(=O)CCC 39.8 µM [inhibitor, single point]
CCOC(=O)c1[nH]c(C=O)c(C(=O)OCC)c1C 23.8 µM [inhibitor, single point]
Cc1oc2ccc(OS(C)(=O)=O)cc2c1C(=O)OC(C)C 39.8 µM [inhibitor, single point]
CCOC(=O)c1sc2nc(C)nc(SCC(=O)NC3CCS(=O)(=O)C3)c2c1C (configuration not stated) 39.8 µM [inhibitor, partial curve, poor fit]
CC(=O)Nc1ccc(S(=O)(=O)Nc2nc(CN3CCOCC3)nc3sc4c(c23)CCCC4)cc1 22.4 µM [inhibitor, partial curve]
CN(C)C(=O)N1CCCC(C(=O)NCCc2ccccc2)C1 (configuration not stated) 31.6 µM [inhibitor, partial curve]
Cc1ccc(C(NC(=O)c2ccccc2)C(Cl)Cl)cc1 (configuration not stated) 25.1 µM [inhibitor, single point]
CCCCN(CCCC)S(=O)(=O)c1ccc2oc(C(=O)N3CCOCC3)c(C)c2c1 39.8 µM [inhibitor, single point]
Cn1cc(C(=O)N/N=C/c2cccs2)c2ccccc21 39.8 µM [inhibitor, single point]

Potency, inactive and 31.6 µM (active):
Cc1ccc([N+](=O)[O-])cc1S(=O)(=O)N(C)C

Potency, active:
N#Cc1ccccc1Cn1c(=O)n(Cc2ccc(C(=O)NCc3ccco3)cc2)c(=O)c2sccc21 25.1 µM
CCOC(=O)C1(CCCc2ccccc2)CCN(C(=O)CCN2CCCCC2=O)CC1 4.47 µM
CC12C(=O)N(Cc3ccco3)C(=O)C1C1c3ccccc3C2c2ccccc21 (configuration not stated) 15.8 µM
CC(=NCCN1CCNCC1)C1=C(O)CC(C)(C)CC1=O 25.1 µM
COc1ccc(NC2=CC(c3ccc(OC)c(OC)c3)N(c3ccc(OC)cc3)C2=O)cc1 (configuration not stated) 14.1 µM
CNc1ccc(Br)cc(C(=O)/C=C/c2cccc(OC)c2)c1=O 14.1 µM
COc1ccc(OC)c(-n2c(C)cc(C=O)c2C)c1 5.62 µM
COc1ccc(CCN2C(=O)C(O)=C(C(=O)c3ccco3)C2c2cccs2)cc1OC (configuration not stated) 7.94 µM

Potency, inactive:
Cc1[nH]c2ccccc2c1C(=O)COC(=O)c1cccc(S(=O)(=O)N2CCCCC2)c1
CC#C[C@]1(O)CC[C@H]2[C@@H]3CCC4=CC(=O)CCC4=C3[C@H](c3ccc(N(C)C)cc3)C[C@@]21C
O=S1(=O)CC2SC(=S)N(Cc3ccccc3)C2C1 (configuration not stated)
Oc1ccccc1/C=N/NC1=NCCCCC1
CCN(CC)CC1CCN(c2ncc3ncnc(Nc4ccc(F)c(Cl)c4)c3n2)CC1
Cc1cccc(OCCNc2cc(N3CCN(C)CC3)ccc2[N+](=O)[O-])c1
O=C(NCc1nc2ccccc2[nH]1)[C@H]1C[C@@H]1[C@H](NP(=O)(c1ccccc1)c1ccccc1)c1ccccc1
Cc1ccc(CN2CCN(C(=O)CCN3C(=O)c4ccccc4C3=O)CC2)cc1
CCC(=O)O[C@]1(C(=O)CCl)[C@@H](C)C[C@H]2[C@@H]3CCC4=CC(=O)C=C[C@]4(C)[C@@]3(F)[C@@H](O)C[C@@]21C
Cc1c(/C=C/C(=O)c2ccccc2O)cnn1C
CC1CCC(C(C)C)C(=O)C1 (configuration not stated)
CNC(=O)CCc1nc(-c2ccc(C(C)(C)C)cc2)no1

activity, negative = inhibition, inactive:
COC(=O)N1C2CC3(C)CC(=O)CC1(C)C3c1ccccc12 (configuration not stated) 10.1% [at 13.5 µM]
